# Measured values as given in PubChem BioAssay AID1347428 (National Center for Advancing Translational Sciences (NCATS), 2020).
# Screen size: about 91,000 compounds; about 290 (0.32%) were called active. The shares of active, inactive and inconclusive entries below differ from those in the screen. Calls follow the shape of the dose curve; as a rule, active = well fitted inhibition curve with a large enough effect; inconclusive = small, poorly fitted or top-dose-only effect; inactive = no such curve, though single readings can be large or run the other way. Potencies of inconclusive entries are doubtful fits and often do not repeat.
# Target: Single-stranded DNA cytosine deaminase (Homo sapiens) (UniProt Q9GZX7)
# Experiment: Primary qHTS assay for inhibitors of Activation Induced Cytidine Deaminase (AID): AID signal; also: nearly all actives have a fitted effect of over 25% in size
# Settings: AID deamination FRET fluorescence, UDG-coupled, 4 h; activity change, negative = inhibition: at 115 µM (top of the series)
# % is scaled to controls: 0 for no effect and ±100 for the full control effect; potency is read from the fitted curve at half-maximal effect; tags tell the direction and shape of the fitted curve.
# Chain of UniProt Q9GZX7 (Q9GZX7 whole entry, looked up): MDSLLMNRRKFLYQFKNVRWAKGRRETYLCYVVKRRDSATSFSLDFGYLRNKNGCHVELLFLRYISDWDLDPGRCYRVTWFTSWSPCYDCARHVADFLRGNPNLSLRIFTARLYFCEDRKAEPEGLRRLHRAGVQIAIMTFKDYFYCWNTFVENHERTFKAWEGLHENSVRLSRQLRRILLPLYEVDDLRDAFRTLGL
Compound,Potency,"activity change, negative = inhibition"
Cc1ccccc1-n1c(SCC(=O)Nc2ccc(Cl)cc2F)nnc1-c1cc2occc2n1C,"inconclusive: 12.6 µM [inhibitor, full curve, poor fit]",
CCOC(=O)C1CCN(c2ncnc3c2c(-c2ccccc2)cn3-c2cccc(C)c2)CC1,"inconclusive: 2.82 µM [inhibitor, full curve, poor fit]",
Cc1ccccc1NC(=O)c1ccc(F)c(S(=O)(=O)N(C)Cc2ccccc2)c1,"inconclusive: 25.1 µM [inhibitor, full curve, poor fit]",
CCCCN1C(=O)c2[nH]nc(-c3ccccc3O)c2C1c1cccc(OCc2ccccc2)c1 (stereo not given),"inconclusive: 12.6 µM [inhibitor, full curve, poor fit]",
Cc1cc(C)c(Cn2c3ccccc3c3cnn(CC(=O)NC4CCC(C)CC4)c(=O)c32)c(C)c1 (stereo not given),"inconclusive: 100 µM [inhibitor, partial curve, poor fit]",
Clc1cccc(N2CCN(c3ncnc4c3nc3n4CCCCC3)CC2)c1,"inconclusive: 89.1 µM [inhibitor, partial curve, poor fit]",
C#CCOc1ccc(C(=O)Nc2ccc3ccccc3c2)cc1,,inactive: 7.33%
CCc1ccc(NC(=O)c2cc(C(C)=O)n3ccccc23)cc1,"inconclusive: 56.2 µM [inhibitor, partial curve, poor fit]",
COc1ccc2ccc(OC(=O)c3ccccc3)cc2c1,,inactive: -2.59%
CC(C)C(NC(=O)c1ccccc1F)C(=O)NCc1cnn(-c2ccccc2)c1 (stereo not given),,inactive: 3.51%
CCn1cc(C(=O)N2CCN(c3cc(Cl)ccc3C)CC2)c(=O)c2cc(S(=O)(=O)N3CCOCC3)ccc21,"inconclusive: 79.4 µM [inhibitor, partial curve]",
CCCCCCn1nc(C(=O)Nc2ccc(OC)c(NC(C)=O)c2)c2ccccc2c1=O,,inactive: -9.15%
CCCCCCc1ccc(/C(C)=C\C(=O)O)cc1,"inconclusive: 79.4 µM [inhibitor, partial curve, poor fit]",
CC(C)CNC(=O)NC1=C(C#N)C(C)(C)Cc2ccccc21,,inactive: -1.37%
O=C(NCC(c1ccc2c(c1)OCO2)N1CCN(c2ccc(F)cc2)CC1)c1cccc([N+](=O)[O-])c1 (stereo not given),"inconclusive: 79.4 µM [inhibitor, single point]",
CCCCCCC#CC#Cc1cccc(C(=O)O)c1,"inconclusive: 89.1 µM [inhibitor, partial curve, poor fit]",
CCc1ccc(NC(=O)C2CCCN(c3nn4cc(-c5ccc(OC)cc5)nc4s3)C2)cc1 (stereo not given),"inconclusive: 22.4 µM [inhibitor, partial curve, poor fit]",
CCCCCOC(=O)CSc1nc2c(c(=O)[nH]c(=O)n2C)n1CCC,,inactive: -11.6%
O=C(CSc1nccn1-c1ccc(Cl)cc1)Nc1cccc2ccccc12,"inconclusive: 56.2 µM [inhibitor, partial curve, poor fit]",
CSc1ccc(CCNC(=O)c2ccc3c(c2)nc2n3CCCCC2)cc1,"inconclusive: 15.8 µM [inhibitor, full curve, poor fit]",
C#CCN(CC(=O)NC(=O)NCC)C1CCCCC1,,inactive: -2.98%
O=C(NCCn1cc(SCc2ccccc2F)c2ccccc21)c1cccs1,"inconclusive: 79.4 µM [inhibitor, partial curve, poor fit]",

Compound,Potency,"activity change, negative = inhibition"
Fc1ccc(C(Nc2ccccc2Cl)c2nnc(-c3ccccc3Cl)o2)cc1 (stereo not given),"inconclusive: 35.5 µM [inhibitor, full curve, poor fit]",
CCn1c(=O)c2cc(C(=O)N3CCN(c4cccc(OC)c4)CC3)sc2c2ccccc21,"inconclusive: 7.94 µM [inhibitor, full curve, poor fit]",
Cc1cccc(-n2cc(-c3ccccc3)c3c(N4CCC(C)CC4)ncnc32)c1,"inconclusive: 11.2 µM [inhibitor, full curve, poor fit]",
COc1ccc(-c2nc(NC(=O)Cn3cnc4c3c(=O)n(C)c(=O)n4C)sc2C)cc1,,inactive: 4.69%
Cc1ccc(Cl)cc1NS(=O)(=O)c1ccc2c(c1)NC(=O)CCS2,,inactive: -17.2%
COc1cccc(N=C2NN=C(c3ccc4c(c3)CC(C)N4S(C)(=O)=O)CS2)c1 (stereo not given),,inactive: 21.3%
COc1cc(NC(=O)c2ccc3c(c2)NC(=O)CS3)cc(OC)c1OC,,inactive: 8.25%
CCCCOc1ccc(C(=O)NCCc2csc(-c3cccc(F)c3)n2)cc1,,inactive: -7.1%
COc1ccccc1NC(=O)C(C)Sc1nnc2ccc3ccccc3n12 (stereo not given),"inconclusive: 28.2 µM [inhibitor, partial curve, poor fit]",
Cc1ccc(-n2ncc(C(=O)NCc3cccs3)c2C2CCN(C(=O)OC(C)(C)C)CC2)cc1,"inconclusive: 44.7 µM [inhibitor, full curve, poor fit]",
CC(Sc1ccc(F)cc1F)C(N)=O (stereo not given),,inactive: -4.83%
CCc1ccc(C(=O)c2cnc3ccc(F)cc3c2S(=O)(=O)c2ccccc2)cc1,"inconclusive: 31.6 µM [inhibitor, partial curve, poor fit]",
COc1ccc(OCC(=O)N2CCC(c3nc4ccccc4s3)CC2)cc1,,inactive: 4.4% [at 57.5 µM]
O=C(NC1CCCC1)c1ccc(CSc2nc3ccncc3n2Cc2cccc(F)c2)cc1,"inconclusive: 35.5 µM [inhibitor, full curve, poor fit]",
Cc1ccc(C)c(NC(=O)C2CCCN(c3nc4ccccc4s3)C2)c1 (stereo not given),"inconclusive: 28.2 µM [inhibitor, single point]",
Nc1nnnn1NCc1c(OCc2ccc(Cl)cc2Cl)ccc2ccccc12,,inactive: 1.49%
Cc1cccc(C(=O)Nc2cccc(-c3nn4c(C)nnc4s3)c2)c1,"inconclusive: 35.5 µM [inhibitor, partial curve, poor fit]",
COc1ccccc1N1CCN(c2ncnc3onc(-c4ccc(F)cc4)c23)CC1,"inconclusive: 89.1 µM [inhibitor, single point]",
COc1cccc(C(=O)NCCc2csc(-c3ccc(Cl)cc3)n2)c1,"inconclusive: 44.7 µM [inhibitor, partial curve, poor fit]",
COC(=O)c1c(NC(=O)CCCOc2ccc(C(C)(C)C)cc2)sc2c1C(C(=O)OC)CC2 (stereo not given),"inconclusive: 39.8 µM [inhibitor, single point]",
Cn1c(=O)c2c(-c3ccc(Cl)cc3)n(Cc3ccc(Cl)cc3)cc2n(C)c1=O,"inconclusive: 22.4 µM [inhibitor, partial curve, poor fit]",
O=C1CC(N2CCOCC2)C=C1Nc1ccccc1 (stereo not given),,inactive: 22.9%

Compound,Potency,"activity change, negative = inhibition"
COc1ccc(C(=O)NCCn2cc(SCC(=O)Nc3ccc(C)cc3)c3ccccc32)cc1,"inconclusive: 25.1 µM [inhibitor, full curve, poor fit]",
CC(=O)N(C)CCCNC(=O)c1nc2ccccc2c(=O)[nH]1,,inactive: -5.12%
COc1ccccc1OCCCSc1nc(-c2ccc(C(C)(C)C)cc2)nc2cc(=O)[nH]n12,"inconclusive: 56.2 µM [inhibitor, partial curve, poor fit]",
CCc1ccc2oc(C(=O)Nc3ccc(S(=O)(=O)Nc4onc(C)c4C)cc3)cc(=O)c2c1,,inactive: -5.24%
COc1cccc(Nc2cc(C)nc3ccc(Cl)cc23)c1,"inconclusive: 89.1 µM [inhibitor, partial curve, poor fit]",
COc1ccc(N2CCN(CC(O)COc3c(OC)cccc3OC)CC2)cc1 (stereo not given),,inactive: 11.9% [at 57.5 µM]
O=C(CCc1ncc(-c2ccccc2Cl)o1)NCc1ccc(Cl)cc1Cl,,inactive: -0.298%
CCOC(=O)C1=C(CN2CCN(c3ccc(C)cc3C)CC2)NC(=O)NC1c1ccc(OC)cc1 (stereo not given),"inconclusive: 31.6 µM [inhibitor, full curve, poor fit]",
O=C(Nc1ccc(F)cc1)c1cc(-c2ccco2)on1,,inactive: 2.41%
CC(=O)c1ccc(NC(=O)C2(C#N)CCCC2)cc1,,inactive: 1.35%
Cc1ccc(NC(=O)c2ccc(C)c(S(=O)(=O)N3CCCCCC3)c2)cc1,,inactive: -19.1%
COc1ccccc1CNC(=O)c1cc(S(=O)(=O)N2CCCC(C)C2)cn1C (stereo not given),"inconclusive: 7.08 µM [inhibitor, partial curve, poor fit]",
CCCCN(C)CCCNC(=O)c1cn(CC)c2ccc(S(=O)(=O)N3CCc4ccccc4C3)cc2c1=O,"inconclusive: 89.1 µM [inhibitor, partial curve, poor fit]",
CCC1CN(C(=O)N2CCC(C(=O)NCc3cccc(F)c3)CC2)c2cc(C)ccc2O1 (stereo not given),"inconclusive: 50.1 µM [inhibitor, partial curve, poor fit]",
COc1ccc(OC)c(NC(=O)C(C)n2c(=O)c(-c3ccccc3NC(C)=O)nc3ccccc32)c1 (stereo not given),"inconclusive: 56.2 µM [inhibitor, partial curve, poor fit]",
COc1ccc(N2CC(NC(=O)COc3cccc(C)c3)CC2=O)cc1OC (stereo not given),"inconclusive: 100 µM [inhibitor, single point]",
Fc1ccc(N2CCN(c3ncnc4onc(-c5ccc(Cl)cc5)c34)CC2)cc1,"inconclusive: 28.2 µM [inhibitor, partial curve, poor fit]",
CC(C)c1ccc(NC(=O)c2ccc(=O)n(Cc3ccccc3)c2)cc1,"inconclusive: 89.1 µM [inhibitor, single point]",
Cc1ccc(-n2c(=O)c3oc4ccccc4c3n(Cc3cccc(F)c3)c2=O)cc1C,"inconclusive: 35.5 µM [inhibitor, partial curve, poor fit]",
COc1cc(Nc2nc(-c3ccc(OC)c(OC)c3)nc3ccccc23)cc(OC)c1,"inconclusive: 2.82 µM [inhibitor, full curve, poor fit]",
Cc1ccc(C2=NN(C(=O)c3ccco3)C(c3ccc4nccnc4c3)C2)cc1 (stereo not given),,inactive: -19%
